Among all 120,000 compounds or so, about 5,300 (4.4%) were called active. The inconclusive results got no clear call from the source; some entries with a clear call stand among them for comparison. Calls follow the shape of the dose curve; as a rule, active = well fitted inhibition curve with a large enough effect; inconclusive = small, poorly fitted or top-dose-only effect; inactive = no such curve, though single readings can be large or run the other way. Potencies beside an inconclusive call are fits to weak or partial responses and may not hold up.
test: qHTS Primary assay for Inhibitors of Plasmodium falciparum Dd2 growth in vitro; also: nearly all actives have a fitted effect of over 65% in size;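 as to activity, negative = inhibition: plate controls were DMSO vehicle for no effect and reference drug for full effect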; settings: P. falciparum Dd2 growth, SYBR Green, 72 h; activity, negative = inhibition: at 28.9 µM (top of the series) unless noted; series mostly up to 28.9 µM
How it was run: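 Infected erythrocytes (Dd2, 0.3% parasitemia, 2.5% hematocrit final) are added to compound in RPMI-1640/Albumax II medium, grown 72 h at 37C in low oxygen, then lysed with saponin/Triton-X containing SYBR Green and read by fluorescence.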
Potency is read from the fitted curve at half-maximal effect; tags tell the direction and shape of the fitted curve.

Structure (SMILES) | Potency | activity, negative = inhibition
Cc1c(-c2ccccc2F)[nH]c2ccc(CNS(=O)(=O)C3CC3)cc12 | inactive | 
CCOC(=O)c1ccccc1NC(=O)N(Cc1ccc(CC)cc1)Cc1cn[nH]c1-c1ccc(OC)cc1 | inconclusive: 10 µM [inhibitor, single point] | 
O=C(Cn1nc2c(cc1=O)CCCC2)Nc1nnc(C2CCC2)s1 | inactive | 
CN1C(=O)CCC2(CNC(=O)NCCc3ccccc3)CCCC=C12 (stereo not given) | inconclusive: 8.91 µM [inhibitor, partial curve, poor fit] | 
CCn1ccc(C(=O)N2CCCC(c3ccccc3)(c3ccccc3)C2)cc1=O | inconclusive: 10 µM [inhibitor, partial curve, poor fit] | 
O=C1CC(c2ccccc2)N(Cc2ccncc2)CCCN(C(=O)NCc2ccccc2)CCN1 (stereo not given) | inconclusive: 2.51 µM [inhibitor, partial curve, poor fit] | 
CN(Cc1ccccc1)C(=O)CSc1c2c(nc3ccc(Cl)cc13)CCCC2 | inactive | 
COc1ccc(C(=O)N2CCC(Cc3noc(C4CCOCC4)n3)C2)cc1F (stereo not given) | inconclusive: 20 µM [inhibitor, partial curve, poor fit] | 
COc1cccc(CC(=O)NCCc2ncc(C)n2CC2CC2)c1 | inconclusive: 2.51 µM [inhibitor, single point] | 
Cc1ccc(-c2c(CN3CCN(c4cccc(C)c4C)CC3)csc2C)cc1 | inconclusive: 12.6 µM [inhibitor, single point] | 
Cc1cccc(-c2noc([C@@H]3C[C@@H](O)CN3C3CCOCC3)n2)c1 | inconclusive: 14.1 µM [inhibitor, partial curve, poor fit] | 
O=C(c1cc(F)cc(F)c1)N1CCC(Oc2ncccc2C(=O)N2CCCCC2)C1 (stereo not given) | inconclusive: 3.98 µM [inhibitor, single point] | 
CC1(C(=O)N2CCC(c3ccccc3)CC2)CCc2cnc(Nc3ccncc3)nc21 (stereo not given) | active: 10 µM | 
OC[C@H]1C[C@@H](NCc2cccnc2)[C@H](O)[C@@H]1O | inactive | 
COc1cccc(S(=O)(=O)N2CCC(n3cnnc3C(C)C)CC2)c1 | inactive | 
O=C(Nc1ccccc1)NC1CCN(c2nc3ncccc3o2)CC1 | inconclusive: 8.91 µM [inhibitor, partial curve, poor fit] | 
COc1ccc(C2c3c(-c4ccccc4)n[nH]c3C(=O)N2c2ccc(C(=O)O)cc2)c(OC)c1 (stereo not given) | inconclusive: 6.31 µM [inhibitor, partial curve, poor fit] | 
Cc1ccc(CN2CCC(N3CCCC(C(=O)NC4CC4)C3)CC2)cc1 (stereo not given) | inactive | 
Cc1ccccc1C(=O)N1CCC2(CC1)OCC(C(=O)N1CCCC1)N2C(=O)c1ccc(F)cc1 (stereo not given) | inconclusive: 3.98 µM [inhibitor, full curve] | 
CN1CC2(CCN(S(=O)(=O)c3ccc(C#N)cc3)CC2)CC1C(=O)N1CCOCC1 (stereo not given) | inconclusive: 0.316 µM [inhibitor, full curve] | 
OC[C@@H]1CN(Cc2ccc3[nH]ccc3c2)C[C@H]1c1ccccn1 | inconclusive: 17.8 µM [inhibitor, single point] | 
COc1ccc(C(=O)N2CCCC(n3cc(-c4nc(-c5ccccc5)no4)nn3)C2)cc1F (stereo not given) | inconclusive: 2.51 µM [inhibitor, partial curve, poor fit] | 

Structure (SMILES) | Potency | activity, negative = inhibition
Cc1cccc(NC(=O)C2CCCN2S(=O)(=O)c2cccc3nsnc23)c1C (stereo not given) | inconclusive: 12.6 µM [inhibitor, single point] | 
CCN(C(=O)c1sc2nc3n(c(=O)c2c1C)CCCC3)c1ccccc1F | inconclusive: 7.94 µM [inhibitor, partial curve] | 
COCCNC(=O)NC[C@H]1O[C@@H]2C[C@@H](CC(=O)NCc3nccn3C)O[C@@H]2[C@@H]1O | inactive | 
O=C1CCN(Cc2cccc(F)c2)CCCCCCN1 | inactive | 
Cc1ccc(CCNC(=O)c2cc(-c3ccccc3)n[nH]2)cc1 |  | inconclusive: -133% [inhibitor] [at 5.79 µM]
Cc1occc1C(=O)N1CC(F)(F)C[C@H]1c1nc(C2CC2)no1 | inconclusive: 8.91 µM [inhibitor, partial curve, poor fit] | 
COCC1CN(C(=O)C2(c3ccccc3)CC2)CC12CCOCC2 (stereo not given) | inactive | 
O[C@]12CCNC[C@H]1CN(Cc1cccc(-c3ccccc3)c1)CC2 | active: 8.91 µM | 
COCCOc1ccnc(-c2noc([C@@H]3CCCN3Cc3cccnc3)n2)c1 | inconclusive: 3.98 µM [inhibitor, partial curve, poor fit] | 
Cc1cccc(OCC2(CNC(=O)C3CC3)C[C@@H](O)[C@@H](O)C2)n1 (stereo not given in full) | inactive | 
O=C(CSc1ncc2c(n1)-c1ccccc1N(Cc1ccc(Cl)cc1)S2(=O)=O)c1ccc(Cl)cc1 | inconclusive: 10 µM [inhibitor, single point] | 
COc1ccc(-c2noc([C@@H]3CCCN3C(=O)c3ccc(Cl)cc3OC)n2)cc1OC | inconclusive: 7.94 µM [inhibitor, single point] | 
Cc1cccc(C)c1NC(=O)CCSc1nc(-c2ccc3c(c2)OCO3)cc(C(F)(F)F)n1 | inconclusive: 17.8 µM [inhibitor, single point] | 
CCOc1ccccc1C(=O)N1CCC2(CC1)CN(c1ccncn1)CC2CO (stereo not given) | inconclusive: 8.91 µM [inhibitor, partial curve, poor fit] | 
OCC1(Cc2ccccc2)CCN(Cc2ccccc2-c2ccco2)CC1 | active: 8.91 µM | 
O=C(NC1CC1)c1nc(-c2ccc(F)cc2)c2ccccn12 | inconclusive: 5.01 µM [inhibitor, partial curve] | 
COc1ccc(CNC(=O)CCn2ccn3nc4c(c3c2=O)CCCC4)c(OC)c1 | inactive | 
CCOCCOC1CCN(C(=O)Nc2ccccc2F)CC1 | inactive | 
CC(C)n1cnnc1-c1nn(C)c2c1CN(C(=O)CCc1c[nH]c3ccccc13)CC2 | inconclusive: 8.91 µM [inhibitor, partial curve, poor fit] | 
CC(C)N1C(=O)C2(CCCCC2)C1C(=O)N1CCN(c2ccccc2F)CC1 (stereo not given) | inactive | 
C=CCCC(CN1CCOCC1)Oc1ccc(-c2nc(C)no2)cn1 (stereo not given) | inconclusive: 20 µM [inhibitor, single point] | 
COc1cccc(CC(=O)N2CCCC(c3nc(-c4ccccc4)no3)CCNC(=O)CC2)c1 (stereo not given) | inconclusive: 8.91 µM [inhibitor, partial curve, poor fit] | 

Structure (SMILES) | Potency | activity, negative = inhibition
CC(=O)Nc1cccc(C(=O)N2CCC(n3cc(-c4nc(C(C)C)no4)nn3)CC2)c1 | inconclusive: 2.51 µM [inhibitor, single point] | 
Cc1ccn2c(Nc3ccc(F)cc3)c(-c3ccc(C)o3)nc2c1 | active: 10 µM | 
CN(Cc1ccccc1)C1CCOC2(CCN(C(=O)c3ccsc3)CC2)C1 (stereo not given) | inconclusive: 7.94 µM [inhibitor, partial curve] | 
CCOc1ccccc1CNC(=O)[C@@]12CCCC[C@H]1N(CCOC)C(=O)CC2 | inconclusive: 3.55 µM [inhibitor, partial curve, poor fit] | 
CC1=C[C@@H](CNC(=O)C2CC2)[C@H](C(C)C)C[C@H]1Cc1nnc(-c2cncn2C)o1 | inconclusive: 25.1 µM [inhibitor, single point] | 
Cc1ccc(CN2C(=O)c3ccccc3Sc3ccc(C(=O)NC4CCCCC4)cc32)cc1 | inconclusive: 17.8 µM [inhibitor, single point] | 
CCn1nccc1C(=O)N1CCCCCCNC(=O)[C@@H]2CCCC[C@@H]21 | inactive | 
COc1ccccc1CNC(=O)CS(=O)(=O)c1cccc2nsnc12 | inconclusive: 3.98 µM [inhibitor, partial curve] | 
Cc1nn(C)cc1CN(C)Cc1cn(C)nc1-c1ccc(C2CCCCC2)cc1 | inconclusive: 12.6 µM [inhibitor, single point] | 
O=C(N1CCN(S(=O)(=O)c2cccc(F)c2)CC1)N1CC2CC(C1)[C@H]1CCCC(=O)N1C2 (stereo not given in full) | inactive | 
Cc1cc(NC(=O)CSc2nc(-c3ccccc3F)nc3c2c(=O)n(C)c(=O)n3C)no1 | inactive | 
CCCSc1nc2sc3c(c2c(=O)n1-c1ccccc1)CCC(C)C3 (stereo not given) | inconclusive: 11.2 µM [inhibitor, single point] | 
OCC1CCCN(c2ccc(-c3nc(-c4cccc(C(F)(F)F)c4)no3)cn2)C1 (stereo not given) | inconclusive: 20 µM [inhibitor, single point] | 
CC1(C)[C@H](Cc2cc(CN3CCCCC3)on2)C[C@@H]1N | inconclusive: 4.47 µM [inhibitor, partial curve] | 
CC(=O)c1sc2c(c1C)c(=O)n(-c1ccc(Cl)cc1)c(=O)n2Cc1cc(=O)n2cc(Cl)ccc2n1 | active: 1.26 µM | 
Cc1nn(C(=O)c2ccc(Cl)cc2)c(C)c1Sc1ccc(Cl)cc1 | inconclusive: 10 µM [inhibitor, single point] | 
CN(Cc1cc(C[C@@H]2C[C@H](NC(=O)C(C)(C)C)C2(C)C)no1)c1ccccc1 | inconclusive: 28.2 µM [inhibitor, single point] | 
COc1ccc([S+](=O)([O-])N2CCC(N3Cc4cccn4C3=O)CC2)cc1 | inconclusive: 0.282 µM [inhibitor, full curve, poor fit] | 
c1cc2c(cc1OC1CNC1)OCO2 | inactive | 
CC(C)C[C@@H]1N[C@H](C(=O)NCc2ccc(F)cc2)Cc2c[nH]c3cccc1c23 | inconclusive: 3.55 µM [inhibitor, partial curve, poor fit] | 
O=C(Nc1cccc(Cl)c1)N[C@H]1C[C@H]2C(=O)NC[C@@H](CCC(=O)N3CCc4ccccc43)N2C1 | inconclusive: 0.316 µM [inhibitor, partial curve, poor fit] | 
